Measured values as given in the supplement of paper PMC11383711.
Some of the results follow. Binding of human antibodies (heavy:light variable regions, tested as scFv in one mRNA-display pool) to influenza hemagglutinin, with or without the stem antibody CR9114 bound first. Score = (mean enrichment − median) / interquartile range of that screen; higher = more enriched, 0 = typical non-binder. Active = above the paper's cut-off per screen: stems 28; unblocked H1 Solomon Islands 5, H1 Michigan 3, H3 5, H5 19, H7 2.85, both B 5; blocked 9, 7, H5 10, H7 10, B Phuket 10, B Lee 11.5. Scores are scaled within each screen and are no affinities; replicates correlate at about 0.6 to 0.9, and antibodies rare in the pool are noisier.

Columns and labels:
Assay in all cases: mRNA display binding score; higher = more enriched on the antigen
[1] = molecular target: Influenza A H1N1 A/Michigan/45/2015 hemagglutinin ectodomain
Experimental: (§1)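 A pool of natively paired antibodies, displayed as scFv on mRNA, was selected once on antigen-coated beads and sequenced before and after; two replicates.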

[2] = molecular target: Influenza A H1N1 A/Solomon Islands/3/2006 hemagglutinin ectodomain
Experimental: as §1

[3] = molecular target: Influenza A H3N2 A/Singapore/INFIMH-16-0019/2016 hemagglutinin ectodomain; details: antigen blocked with: nothing
Experimental: as §1

[4] = molecular target: Influenza A H5N1 A/Qinghai/1A/2005 hemagglutinin ectodomain
Experimental: as §1

[5] = molecular target: Influenza A H7N9 A/Shanghai/2/2013 hemagglutinin ectodomain
Experimental: as §1

[6] = molecular target: Influenza B/Lee/1940 hemagglutinin ectodomain
Experimental: as §1

[7] = molecular target: Influenza B/Phuket/3073/2013 hemagglutinin ectodomain
Experimental: as §1

[8] = antigen blocked with: 2 µM CR9114 IgG

Measured: mRNA display binding score

B1: R95-1E04 (protein)
chain 1: EVQLVESGGGLVQPGRSLRLSCAASGFSFVDYDMHWVRQAPGKGLEWVSSIRWNSGGIAYADSVKGRFTISRDNAKNSLYLQMNSLRAEDTAFYYCARTEAATVFGDHYSYYYYMDVWGKGTTVTVSS
chain 2: DIVMTQSPDSLAVSLGERATINCKSSQSLFYNSNNKNYFAWYQQKPGQPPKLLIYWASTRESGVPDRFSGSGSGTDFTLTISSLQAEDVAVYYCQQYYTTPLTFGGGTKVEIK
inactive: [1]; [8] -0.274 | [1]; antigen blocked with: nothing 0.461 | [2]; [8] -0.0397 | [2]; antigen blocked with: nothing -0.0164 | [3] 2.6e-05 | [4]; [8] 0.437 | [4]; antigen blocked with: nothing -0.113 | [5]; [8] -0.47 | [5]; antigen blocked with: nothing 0.331 | [6]; [8] -0.643 | [6]; antigen blocked with: nothing -0.146 | [7]; [8] 0.154 | [7]; antigen blocked with: nothing -0.288

B2: 045-09-1G05 (protein)
chain 1: QVQLQESGPGLVKPSQTLSLTCAVSGDSISSGIYFWSWIRQPPGQGLEWIGRVFKTGTTDYNTSLKSRVTISVDTSKNQFSLKVSSATAADTALYYCARETPADRPYCGSGSCSFDSWGQGILVTVSS
chain 2: DIQMTQSPSSLSASVGDRVTITCRASQNINNNLNWYQQKSGKAPKFLIYAASHLQDGVPSRFSGGGSGTDFTLTIASLQPEDFATYYCQQSFTTLGSTFGQGTKVEIK
active: [1]; [8] 51.2 | [1]; antigen blocked with: nothing 3.41 | [2]; [8] 9.66 | [5]; [8] 26.8
inactive: [2]; antigen blocked with: nothing 4.99 | [3] -0.143 | [4]; [8] 6.55 | [4]; antigen blocked with: nothing 9.69 | [5]; antigen blocked with: nothing 0.148 | [6]; [8] -0.349 | [6]; antigen blocked with: nothing 1.35 | [7]; [8] -0.348 | [7]; antigen blocked with: nothing -0.229

B3: K77-2C09 (protein)
chain 1: QVQLVQSGAEVKKPGASVKVSCKASGYTFNKYYMHWVRQAPGQGLEWMGVINPSGGSTTYAQKFQGRVTMTRDTSTSTVFMDLSSLRSEDTAVYYCATDIAIVPTAPFYGMDGWGQGTAVTVSS
chain 2: DIVMTQSPLSLPVTPGEPASISCRSSQSLLHSDGHNCLGWYLRKPGQPPQLLIYLGSFRASGVPDRFSGSGSGTDFTLKISRVEAEDVGVYYCMQTLQTPLTFGGGTKVEIK
inactive: [1]; [8] -0.225 | [1]; antigen blocked with: nothing 0.17 | [2]; [8] -0.453 | [2]; antigen blocked with: nothing 0.302 | [3] -0.231 | [4]; [8] 1.21 | [4]; antigen blocked with: nothing 6.31 | [5]; [8] -1.27 | [5]; antigen blocked with: nothing -0.332 | [6]; [8] 0.723
active: [6]; antigen blocked with: nothing 5.62 | [7]; [8] 40.2 | [7]; antigen blocked with: nothing 38.8

B4: 042-10-4C01 (protein)
chain 1: QVQLVESGGGVVQPGRSLRLSCPASGFSFTTYGMHWVRQAPGKGLEWVAVISYDGRHQYYGDSVKGRFSISRDKSKNILFLQMNSLRAEDTAVYYCARDFTGYFGMDVWGQGTTVTVSS
chain 2: QSVLTQPPSASATPGQRVTISCSGSSSNVGKASVSWYRQLPGAAPKLLMYNTNQRPSGVPDRFSGSKSGTTASLAISGLQSEDEADYYCGAWDDSRNGFYVFGTGTKVTVL
inactive: [1]; [8] -0.0767 | [1]; antigen blocked with: nothing -0.0404 | [2]; [8] 0.199 | [2]; antigen blocked with: nothing 0.0792 | [3] 0.136 | [4]; [8] 0.419 | [4]; antigen blocked with: nothing -0.0769 | [5]; [8] 0.183 | [5]; antigen blocked with: nothing 0.0779 | [6]; [8] -0.376 | [6]; antigen blocked with: nothing -0.222 | [7]; [8] -0.118 | [7]; antigen blocked with: nothing -0.195

B5: C1-2-2D06 (protein)
chain 1: VQLQESGPGLVKPSETLSLTCTVSDYFINNGYYWAWIRQAPGKGLEWIGSIYHSGSTFYNPSLKSRVTISVDTSENQISLRLRSVTAADSAVYYCARQSIYTGNHFPKFDPWGQGTLVTVSS
chain 2: AIQLTQSPSSLSASVGDRVTITCRASQGISSALAWYQQKPGKTPKLLIYDTSNLESGVPSRFSGSGSGTDFTLTISSLQPEDFATYYCQQFNSYPPEVTFGGGTKVEIK
inactive: [1]; [8] -0.214 | [1]; antigen blocked with: nothing -0.465 | [2]; [8] -0.391 | [2]; antigen blocked with: nothing -0.539 | [3] -0.0641 | [4]; [8] -0.553 | [4]; antigen blocked with: nothing -0.341 | [5]; [8] -0.0286 | [5]; antigen blocked with: nothing -0.418 | [6]; [8] -0.403 | [6]; antigen blocked with: nothing -0.293 | [7]; [8] -0.142 | [7]; antigen blocked with: nothing -0.359

B6: 017-10-5E01 (protein)
chain 1: QVQLQESGPGLVKPSQTLSLTCNVSGISMSSPGSFWSWLRQRPGKGLEWLGYVSHSGHTKYTPSLKSRLSISLDVSQDQFSLRLNFVTAADTAVYYCAREYQEQIGRAFDFWGQGTLVTVSS
chain 2: DIQMTQSPSSLSASVGDRVTITCRASQRINTFLNWYQLKPGKAPKLLIYAASHLQSGVPSRFSATGFGTDFTLSISSLQPEDLATYYCQPTFTPSYTFGQGTKVEIK
inactive: [2]; [8] 1.9 | [2]; antigen blocked with: nothing 2.87 | [4]; [8] 0.331 | [4]; antigen blocked with: nothing 0.933 | [6]; [8] -0.557 | [6]; antigen blocked with: nothing 0.277 | [7]; [8] 0.76 | [7]; antigen blocked with: nothing 0.335
active: [1]; [8] 14.8 | [1]; antigen blocked with: nothing 3.93 | [3] 30.5 | [5]; [8] 10.8 | [5]; antigen blocked with: nothing 2.86
